Assay results taken from the RNAGym collection of RNA variant scans (doi:10.7554/elife.90254).
The source gives no read counts; variants with many changes may rest on few reads.

B1: LINE1-mini (parent)
chain: GGCAGAGCUCAACACAGCGUGGCAAAGUGGCUGUGGCUAGACUGCC

Variants of: B1
Assay: self-cleavage, relative activity (ratio to wild type); higher = more cleavage; in vitro, sequencing; the parent is a self-cleaving ribozyme
In the case of C10G U32C G40U, the self-cleavage is reported as 0.01. Variant G2A G19A G21A G29C G35C C42G has a self-cleavage of 0.05. Variant C13U C18A C45U has a self-cleavage of 0.02. In the case of G5A A12G C31A, the self-cleavage is reported as 0.11. In the case of G7C C8G G29A G40U, the self-cleavage is reported as 0.07. With A14G U20G C23A the self-cleavage was 0.03. Variant C15A G36C C42A has a self-cleavage of 0.04. In the case of G5U A16C G36A C42A, the self-cleavage is reported as 0.02. For G2U G5A C10U A11U C18G U32G, the self-cleavage was 0.01. With G30A C42U U43G the self-cleavage was 1.69. For C10U C15A G29C G40U, the self-cleavage was 0.01. Work on A12C A25U G35A C45A yielded a self-cleavage of 0.01. Variant C8A A25U C46G has a self-cleavage of 0.25. G1U G5U G21U U43C showed a self-cleavage of 0.07. Variant G2A C3A G29A C45G has a self-cleavage of 1.17. For A4C C8A G21A G35C, the self-cleavage was 0.04. Work on G1U G5U C45A yielded a self-cleavage of 0.05. In the case of A6G U9G C10G C23U, the self-cleavage is reported as 0. In the case of G7U C23G A25G, the self-cleavage is reported as 0.01. With C10U G22C G35U the self-cleavage was 0.06. G21U C37A U43C C45U gave a self-cleavage of 0.1. C10U U34G U38G gave a self-cleavage of 0.05. G2A C8U A14G C15G gave a self-cleavage of 0.54. Variant C13U C23G G36A C42G has a self-cleavage of 0.08. In the case of A25G A26U G44U, the self-cleavage is reported as 0.1. For G1U C10G G29U A39U, the self-cleavage was 0.05. With G2A C8G G22A the self-cleavage was 0.03. Variant G17C A26G U38G has a self-cleavage of 0.01. For C23U G29A G35A G40A, the self-cleavage was 0.06. Variant G7C G17U C23G G44C has a self-cleavage of 0.01. In the case of G22U A39C G40U, the self-cleavage is reported as 0.11. With G19A U20C G22U U34G the self-cleavage was 0.59. With C3A G30A C46A the self-cleavage was 0.13. In the case of A12U A16U G22U A41G, the self-cleavage is reported as 0.01. Variant G1A C3A U9A has a self-cleavage of 2.79. C18A A39C U43C gave a self-cleavage of 0.02. With G1C A12C G27C G33U the self-cleavage was 0.01. G7C C8A A24U C42U gave a self-cleavage of 0.42. In the case of G17C G33A C37A A41G, the self-cleavage is reported as 0.07. C3U A6G G22U gave a self-cleavage of 0.24. Work on C3G C10A A12U yielded a self-cleavage of 0.1. In the case of C8U C10U C23G A24C C37U, the self-cleavage is reported as 0.02. In the case of C15G C31G G40U, the self-cleavage is reported as 0.01. With G1A G2U G17A C31G the self-cleavage was 0.12. Variant G1U A11C A14G C23A G35C G36C C45U has a self-cleavage of 0. Variant G2U A39G A41G has a self-cleavage of 0.01. C10U A12U U28C G33U showed a self-cleavage of 0.03. U9G G22A C46A gave a self-cleavage of 0.11. In the case of C3U A14U A26G U34G, the self-cleavage is reported as 0.7. Work on G1U C3G C23A yielded a self-cleavage of 0.2. Variant A4C A16C G17U G27U G29U has a self-cleavage of 0.27. Variant G2U C8U A26U U34C A39G has a self-cleavage of 0.03. For C3G C18U C46U, the self-cleavage was 0.08. Variant C3U A16C A41U has a self-cleavage of 0.21. For A11G G21U U32C G44A, the self-cleavage was 0.02. For C13A A16C A26G G33C, the self-cleavage was 0.03. With A11C A14U G21U G36U the self-cleavage was 0.02. G5U G29A G33A gave a self-cleavage of 0.03. In the case of G1C G7U G22U C23A G33U U34G U38A A41G, the self-cleavage is reported as 0.08. Work on G1A G27C G36C yielded a self-cleavage of 0.07. A12U G19A G22U showed a self-cleavage of 0.27. Work on A4U C23A A41U yielded a self-cleavage of 0.24. Work on A4U A6U G21U G29A U32G yielded a self-cleavage of 0.03. Work on A12C G29A G35A G44A C45A yielded a self-cleavage of 0.07. G5U C8A U20G C23U C37G showed a self-cleavage of 0.54. G7C C8U C37A showed a self-cleavage of 0.01. Work on G5U C8U U9A C46U yielded a self-cleavage of 0.55. With G1A U28C G29U the self-cleavage was 0.61. In the case of A14C A41C G44A, the self-cleavage is reported as 0.03. G2C A4G C13G C15U C18U G35A showed a self-cleavage of 0.25. In the case of C10A C31U A39U C42A, the self-cleavage is reported as 0.02. Work on C18A G21U G27A yielded a self-cleavage of 0.38. Variant A11U C13U G22A has a self-cleavage of 0.13. Work on A11U G22C C31A yielded a self-cleavage of 0.04. For G5A G40U G44U, the self-cleavage was 0.03. Work on C13A C15G G17U U34A yielded a self-cleavage of 0.39. Work on A4G C18U G40C yielded a self-cleavage of 0.01. For G5A G19U C37G A39C, the self-cleavage was 0.01. A16G A26C U28A showed a self-cleavage of 0.06. Work on C3U G17A A39G yielded a self-cleavage of 0.06. G2U C10A G22A G27A gave a self-cleavage of 0.01. C3G A6U C13A C18U G36C gave a self-cleavage of 0.27. G2C G5A A11G C13A G17A G35C A39G U43C showed a self-cleavage of 0. For C10A C15A U34G G35C G36C C42A, the self-cleavage was 0.01. A6C U20G C31U showed a self-cleavage of 0.04. U28G G33A C46G gave a self-cleavage of 0.06. Variant G19A C23A C42G has a self-cleavage of 0.02. A12G C15A U28C showed a self-cleavage of 0.03. In the case of U9C A12U C13G A39U, the self-cleavage is reported as 0.02. Work on G1C G22A G27A yielded a self-cleavage of 0.08. Variant G1U C13G U34C has a self-cleavage of 0.04. A25U A26U G35U showed a self-cleavage of 0.08. Variant C15G U34G C37U G44A has a self-cleavage of 0.01. With C13U C37A U43C the self-cleavage was 0.17. In the case of U9G U28G G29C G30A, the self-cleavage is reported as 0.04. Variant G17C U20C G21A A24U C45A has a self-cleavage of 0.02. In the case of G2A A12G A25U, the self-cleavage is reported as 0.02. Variant U9A G21A C23A U32G G36U C45A has a self-cleavage of 0.26. For C13U G27A G44C C46A, the self-cleavage was 0.05. Work on G7U G19U U28G G30U C37A yielded a self-cleavage of 0.02. Work on G5C G29U G40U yielded a self-cleavage of 0.08. Work on G1A A4C C31G yielded a self-cleavage of 0.03. G5U C10G G22A G30A U32A G40A A41C gave a self-cleavage of 0. In the case of G2A A6C G17U G21A, the self-cleavage is reported as 0.12. In the case of G2C A4U G30C, the self-cleavage is reported as 0.05. For C3U C8G G44C, the self-cleavage was 0.02. For G2U G19U C23A G33C, the self-cleavage was 0.02. G5U U9G C10U G22C U28G gave a self-cleavage of 0.04. Work on A16G G22U C42G yielded a self-cleavage of 0.02. Variant C18U U38C G44U has a self-cleavage of 0.03. G29A A39C G40U gave a self-cleavage of 0.05. With C15A G22U C31U the self-cleavage was 0.03. Variant C10A C18G A41C has a self-cleavage of 0.04. Variant A11G C18U A25G C45U has a self-cleavage of 0. C8A C10A C18G G19U showed a self-cleavage of 0.05. C10A G19A A25U gave a self-cleavage of 0.06. A6U C8A A16U showed a self-cleavage of 0.33. Work on G7A G17U G22U yielded a self-cleavage of 0.02. C8G A11C A16G G19U gave a self-cleavage of 0.01. With C10A C13A U28C G36C the self-cleavage was 0.01. For G19A U38C C46A, the self-cleavage was 1.15. G7A U20C G22C C37G showed a self-cleavage of 0.01. C13G A14U A25U U32C gave a self-cleavage of 0.07. Variant C3A C8A U38A has a self-cleavage of 0.7. Work on G2A G29U C31A A41U yielded a self-cleavage of 0.08. For G19A G21U G40U C42A, the self-cleavage was 0.03. In the case of C15A A16U G33A C37A C45A, the self-cleavage is reported as 0. In the case of C23U A25U U43A G44C, the self-cleavage is reported as 0.3. In the case of G2U U34G C46U, the self-cleavage is reported as 0.02. Variant A11C C18A C31U U43G has a self-cleavage of 0. Variant A4G U20A G21A has a self-cleavage of 0.34. A4G G7A C31G gave a self-cleavage of 0.07. C13U A16C A24U C42U G44A gave a self-cleavage of 0.35. A14G C18A U28G C31A U38A C45G gave a self-cleavage of 0. For U9C G30C C42A, the self-cleavage was 0.04. Variant G2A G7U C8G C15G U28C C31A U32A has a self-cleavage of 0.08. Variant G27U U34G G35U U43A has a self-cleavage of 0.03. With G1A U9G U43A the self-cleavage was 0.16. In the case of C10A G35A G40C, the self-cleavage is reported as 0.02. Work on G2A A16C G22U G33A U43G yielded a self-cleavage of 0.03. Work on G29C G30A A39C G40C yielded a self-cleavage of 0.04. Variant C13A C37A C45U has a self-cleavage of 0.08. In the case of G1U C31U U32A, the self-cleavage is reported as 0.06. In the case of A6C G19C G22U G36A A41C, the self-cleavage is reported as 0.03. G17C A25C C42A C45U showed a self-cleavage of 0.01. G5A A14G G17C C31U gave a self-cleavage of 0.02. Work on G1U C10A G17U yielded a self-cleavage of 0.02. A6G C8U U9A C18A A41C C42U U43A showed a self-cleavage of 0.04. Variant C15A G21A G29A C45A has a self-cleavage of 0.03. In the case of A11G G17A U34A, the self-cleavage is reported as 0.03. Variant G5A C8A G22U C31A has a self-cleavage of 0.5. Variant G1A C15A G17A has a self-cleavage of 0.02. In the case of C8A C10A G17U, the self-cleavage is reported as 0.04. For G2C C8G G17A C18A C42G, the self-cleavage was 0.03. With G21U U28C G29A C46U the self-cleavage was 1.79. C3A A14G G36U A39U gave a self-cleavage of 0.01. Work on C8A C23A G36U G40U yielded a self-cleavage of 0.08. Work on U9G A25U G27C G30U C45A yielded a self-cleavage of 0.01. Variant A14G G29U G36C G44C has a self-cleavage of 0.05. A6G G29U G30C U34C showed a self-cleavage of 0.02. For C8A C10A C15A G21U, the self-cleavage was 0.02. In the case of A6G A26C C31U, the self-cleavage is reported as 0. With G2A G5U A39G the self-cleavage was 0.05. Variant A11U G19A C31A has a self-cleavage of 0.01. Variant C10U G19U G21U has a self-cleavage of 0.09. C18U U20G C37G gave a self-cleavage of 0.01. With C13A U20C G27C G35C G40A the self-cleavage was 0.05.
